PubChem BioAssay AID485294 (National Center for Advancing Translational Sciences (NCATS), 2010)
Hit rate of the full screen: of about 370,000 compounds, about 150 (0.041%) were called active. Inconclusive means that the source gave no clear call. Such entries were picked first, then a sample of the others. Calls follow the shape of the dose curve; as a rule, active = well fitted inhibition curve with a large enough effect; inconclusive = small, poorly fitted or top-dose-only effect; inactive = flat fitted curve, though single readings scatter. No potency is given beside an inconclusive call; the fits are too rough.

Molecular target: Beta-lactamase (Escherichia coli (strain K12)) (UniProt P00811)
Experiment: qHTS Inhibitors of AmpC Beta-Lactamase (assay with detergent); also: nearly all actives have a fitted effect of over 25% in size;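 as to activity change, negative = inhibition: 0% = no-compound wells and -100% = no-enzyme wells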
Conditions: AmpC hydrolysis of nitrocefin, absorbance 480 nm, 0.01% Triton; activity change, negative = inhibition: at 114 µM (top of the series)
How it was run: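 AmpC (5.3 nM in the dispensed reagent) in 20 mM phosphate pH 7.0 with 0.01% (detergent screen) or 0.0001% Triton X-100 was preincubated with compounds for 15 min at room temperature. Nitrocefin was then added from an 800 uM solution, and hydrolysis was followed at 480 nm.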
Potency is read from the fitted curve at half-maximal effect; tags tell the direction and shape of the fitted curve.

UniProt P00811, sequence (P00811 whole entry, looked up): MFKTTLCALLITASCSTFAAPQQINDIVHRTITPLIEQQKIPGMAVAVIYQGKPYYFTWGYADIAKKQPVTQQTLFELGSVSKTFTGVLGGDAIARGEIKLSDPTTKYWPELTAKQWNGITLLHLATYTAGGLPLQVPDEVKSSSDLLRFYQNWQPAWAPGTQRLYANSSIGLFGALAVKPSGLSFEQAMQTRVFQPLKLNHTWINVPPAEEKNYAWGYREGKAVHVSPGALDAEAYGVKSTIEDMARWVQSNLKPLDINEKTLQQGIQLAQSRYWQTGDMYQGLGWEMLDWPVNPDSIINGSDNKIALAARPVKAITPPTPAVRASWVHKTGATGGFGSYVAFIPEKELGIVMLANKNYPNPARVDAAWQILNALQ

| Compound | Potency | activity change, negative = inhibition |
| --- | --- | --- |
| Cc1noc(C)c1CSc1nnc(-c2ccccc2)o1 | inconclusive [inhibitor, full curve, poor fit] | – |
| COc1ccc(N2CC(NS(=O)(=O)c3cccs3)CC2=O)cc1 (stereo not given) | inconclusive [inhibitor, full curve] | – |
| Cc1ccccc1NC(=O)c1ccc2c(c1)OCCO2 | inconclusive [inhibitor, full curve] | – |
| COC(=O)c1ccc(NC(=O)c2cccc(N3C(=O)C4C5C=CC(C6CC56)C4C3=O)c2)cc1 (stereo not given) | – | inactive: 5.76% |
| CCOc1cccc(NC(=O)CSc2ncc(-c3ccc(Cl)cc3)[nH]2)c1 | – | inactive: 14.7% |
| CC1CCCN(C(=O)C23CCC(C)(C(=O)C2)C3(C)C)C1 (stereo not given) | – | inactive: 3.04% |
| Cn1c(-c2ccc(Br)o2)nc2ccccc21 | inconclusive [inhibitor, full curve, poor fit] | – |
| Cc1ccc(-n2nc3c(=O)n(CC(=O)NCCc4ccc(Cl)cc4)nc(C)c3c2C)cc1 | inconclusive [inhibitor, full curve, poor fit] | – |
| COCCCNC(=O)CNC(=S)N(Cc1ccccc1F)C1CCCCC1 | inconclusive [inhibitor, full curve, poor fit] | – |
| C/C=C/c1ccc(OCCSc2nc(C)cc(=O)[nH]2)c(OC)c1 | inconclusive [inhibitor, full curve, poor fit] | – |
| Cc1nc(N)sc1-c1csc(N(C)c2ccc(O)cc2)n1 | inconclusive [inhibitor, full curve, poor fit] | – |
| O=C(O)COc1ccccc1/C=C1\C(=O)Nc2ccc(Br)cc21 | inconclusive [inhibitor, partial curve] | – |
| Cc1cc(Nc2cccc(F)c2)nc(NCc2ccccc2)n1 | inconclusive [inhibitor, partial curve] | – |
| Cc1ccc(S(=O)(=O)N2CC3(C)CN(S(=O)(=O)c4ccc(C)cc4)CC(C)(C2)C3O)cc1 (stereo not given) | inconclusive [inhibitor, partial curve] | – |
| CCOC(=O)C1CCN(C(=O)Cc2cccc3ccccc23)CC1 | inconclusive [inhibitor, single point] | – |
| CCOC(=O)c1c(NC(=O)CN2CCN(C(=O)c3ccco3)CC2)sc2c1CCCC2 | inconclusive [inhibitor, partial curve, poor fit] | – |
| COc1ccc([C@@H]2CC=C(C(=O)O)[C@H](c3ccc(F)cc3)N2S(=O)(=O)c2ccc(C)cc2)cc1OC | inconclusive [inhibitor, full curve] | – |
| CN1C(=O)C2CN(CCc3ccccc3)CNC2N(C)C1=O (stereo not given) | inconclusive [inhibitor, full curve] | – |
| COc1cccc(OCc2nc3ccccc3n2Cc2ccccc2)c1 | – | inactive: 10.2% |
| O=C(Nc1ccc([N+](=O)[O-])cn1)C1CC2CCC1C2 (stereo not given) | inconclusive [inhibitor, single point] | – |
| Nc1ccccc1C(=O)N/N=C1\C2CN3CCN(C2)CC1(c1ccccc1)C3 | inconclusive [inhibitor, single point] | – |
| Cc1cccc(NC(=O)CSc2nnc(-c3ccccc3C)o2)c1 | – | inactive: -5.89% |
| CC(C)c1ccc(NC(=O)CCCC(=O)NCCc2ccccc2)cc1 | inconclusive [inhibitor, partial curve, poor fit] | – |

| Compound | Potency | activity change, negative = inhibition |
| --- | --- | --- |
| CCn1c(Oc2ccc(F)cc2F)nc2c1c(=O)n(C)c(=O)n2C | – | inactive: -0.112% |
| Cc1nn(Cc2ccccc2)c2sc(C(=O)NCc3cccnc3)cc12 | inconclusive [inhibitor, full curve] | – |
| CC(NC(=O)c1cc2cc([N+](=O)[O-])ccc2oc1=O)C1CCCO1 (stereo not given) | inconclusive [inhibitor, partial curve, poor fit] | – |
| CCc1ccc(CNC(=O)c2ccc(OC3CCN(C(C)=O)CC3)c(OC)c2)nc1 | – | inactive: -4.9% |
| N#C/C(=C/c1cccc(O)c1)C(=O)NCc1ccc(Cl)cc1 | – | inactive: -1.83% |
| CN=c1sc2ccccc2n1CC(O)c1ccccc1 (stereo not given) | – | inactive: -7.51% |
| c1ccc2c(CN3CCN(C4CCCCC4)CC3)c[nH]c2c1 | inconclusive [inhibitor, partial curve, poor fit] | – |
| Cc1ccccc1NC(=O)CSc1ncc2c(n1)-c1ccccc1N(C)S2(=O)=O | – | inactive: 4.54% |
| Cc1cc(Cl)ccc1NC(=S)NCCc1ccc(Cl)cc1 | – | inactive: -11.1% |
| O=C(c1ccc(Cl)nc1)N1CCN(S(=O)(=O)c2ccc(Cl)cc2)CC1 | – | inactive: 4.59% |
| CCOC(=O)c1ccc(NC(=S)Nc2cccc(C)n2)cc1 | – | inactive: -8.9% |
| CCC(C)C(=O)Nc1nc(C)c(-c2csc(Nc3ccccc3OC)n2)s1 (stereo not given) | – | inactive: 2.22% |
| Cc1cc(/C=C(\C#N)C(=O)NCc2cccs2)c(C)n1-c1ccccc1F | inconclusive [inhibitor, single point] | – |
| COc1cc(/C=C/C(=O)O)cc(OC)c1OC | – | inactive: 4.43% |
| Cc1cccc(C(=O)NC2CCN(CC(=O)Nc3ccccc3Cl)CC2)c1 | inconclusive [inhibitor, partial curve, poor fit] | – |
| COc1ccc(C)cc1NC(=O)C1CC(=O)N(Cc2ccco2)C1 (stereo not given) | inconclusive [inhibitor, partial curve, poor fit] | – |
| COc1ccc(-c2c(C)nn3c(N4CCN(Cc5ccccc5)CC4)cc(C)nc23)cc1OC | inconclusive [inhibitor, partial curve] | – |
| COc1ccccc1NC(=O)c1ccc(NC(=O)c2nc3nccc(C)n3n2)cc1 | – | inactive: -0.0411% |
| COc1ccc(-c2nnn(CC(=O)N(CCCO)C(C(=O)NC3CCCC3)c3ccncc3)n2)cc1 (stereo not given) | inconclusive [inhibitor, single point] | – |
| Fc1ccccc1/C=N/Nc1ncnc2ccccc12 | inconclusive [inhibitor, full curve] | – |
| Cc1cccc(NC(=O)N2C[C@H]3C[C@@H](C2)c2cccc(=O)n2C3)c1 | inconclusive [inhibitor, partial curve] | – |
| COc1ccc(CNC(=O)C2C3C=CC4(CN(Cc5cccnc5)C(=O)C24)O3)cc1 (stereo not given) | inconclusive [inhibitor, partial curve, poor fit] | – |
